Measured values published in the antibiotic and cytotoxicity screens of Wong et al. (2023).
This is one part of the list.

These compounds were tested on HepG2 (assay: cytotoxicity call (relative viability < 0.9)). Conditions: 10 µM.

| SMILES | cytotoxicity call |
| --- | --- |
| Cc1cccc(S(=O)(=O)N2C[C@@H](O)COC[C@H]3O[C@@H](CC(=O)N4CCN(C)CC4)CC[C@@H]32)c1 | inactive |
| Cc1noc(C)c1S(=O)(=O)N(C)C[C@@H]1Oc2ccc(NC(=O)Nc3ccc4c(c3)OCO4)cc2CC(=O)N([C@@H](C)CO)C[C@H]1C | inactive |
| C[C@@H]1CN([C@H](C)CO)C(=O)c2cccc(NC(=O)CCCCCC(=O)Nc3ccccc3N)c2O[C@@H]1CN(C)Cc1ccc(-c2ccccc2)cc1 | active |
| C[C@H](O)C#Cc1cnc2c(c1)C(=O)N([C@H](C)CO)C[C@H](C)[C@@H](CN(C)C(=O)Nc1ccc(C(F)(F)F)cc1)O2 | inactive |
| CC(C)Oc1ccc(S(=O)(=O)N2CCN(c3ccc(-c4ncco4)c(OCC(=O)O)c3)CC2)cc1 | inactive |
| C[C@H](CO)N1C[C@H](C)[C@@H](CN(C)Cc2ccc3c(c2)OCO3)Oc2c(NC(=O)c3cnccn3)cccc2C1=O | inactive |
| C[C@H]1CN([C@@H](C)CO)C(=O)Cc2cc(NC(=O)CCN3CCOCC3)ccc2O[C@H]1CN(C)Cc1ccncc1 | inactive |
| C[C@H]1CN([C@@H](C)CO)C(=O)Cc2cc(NC(=O)CCN3CCOCC3)ccc2O[C@@H]1CN(C)Cc1ccccc1 | inactive |
| C[C@H]1CN([C@@H](C)CO)C(=O)c2cc(C#CC3CCCCC3)cnc2O[C@@H]1CN(C)C(=O)Cc1ccccn1 | inactive |
| Nc1ccccc1C(=O)N[C@H]1CCCCNC1=O | inactive |
| Cc1ccc(CNc2ccc3c(c2)ncn3C2CCCCC2)cc1 | inactive |
| Cc1ccc(S(=O)(=O)N[C@@H](Cc2ccccc2)C(=O)NCCCn2cc(-c3cccc(/C=C/C(=O)NO)c3)nn2)cc1 | active |
| CNC(=O)[C@H]1C[C@@H]2CN(Cc3cnn(C)c3)C[C@@H]2N1C | inactive |
| O=C(C[C@H]1CC[C@H]2[C@@H](COC[C@@H](O)CN2S(=O)(=O)c2ccc(F)cc2)O1)NCc1ccc(Cl)c(Cl)c1 | inactive |
| C=C1COC(=O)[C@@H]2[C@@H](CO)[C@@H](O)C[C@H]12 | inactive |
| COc1ccc(S(=O)(=O)N2CCO[C@@H]2CNC(=O)C(=O)NCc2ccncc2)cc1 | inactive |
| C[C@H](CO)N1C[C@H](C)[C@H](CN(C)C(=O)Nc2ccc3c(c2)OCO3)OCCCC[C@H](C)Oc2ccc(NS(=O)(=O)c3ccccc3)cc2C1=O | inactive |
| C[C@@H]1CN([C@@H](C)CO)C(=O)c2cccc(NC(=O)c3ccc(-c4nccs4)cc3)c2O[C@@H]1CN(C)CC1CCCCC1 | inactive |
| CCc1nc2ccc(C(=O)Nc3ccc(OC)c(OC)c3)cn2c1N(CC)Cc1cccc(Br)c1 | inactive |
| C[C@H]1CN([C@@H](C)CO)C(=O)c2c(c3ccccc3n2C)-c2ccccc2CO[C@H]1CN(C)Cc1ccc(F)cc1 | inactive |

| SMILES | cytotoxicity call |
| --- | --- |
| CC(C)Cn1c(=O)[nH]c2c1c(=O)n(C)c(=O)n2C | inactive |
| C[C@H]1CN([C@@H](C)CO)C(=O)CCCn2cc(nn2)CO[C@H]1CN(C)S(=O)(=O)c1ccc(Oc2ccccc2)cc1 | inactive |
| C[C@@H]1CCCCO[C@@H](CN(C)C(=O)Nc2cccc3ccccc23)[C@H](C)CN([C@H](C)CO)C(=O)c2cc(NC(=O)NC3CCCCC3)ccc2O1 | inactive |
| C[C@H](O)C#Cc1ccc2c(c1)O[C@@H](CN(C)C(=O)CN(C)C)[C@H](C)CN([C@H](C)CO)S2(=O)=O | inactive |
| COc1ccc2c3c([nH]c2c1)[C@H](CO)N(C[C@]13CCN(CC1)C(=O)c1ccncc1)C(=O)c1ccncc1 | inactive |
| CCNC(=O)C[C@H]1CC[C@@H](NC(=O)C2CC2)[C@@H](CO)O1 | inactive |
| CCC(=O)N1CCC[C@](C)(C(=O)NS(=O)(=O)c2ccc(S(C)(=O)=O)cc2)C1 | inactive |
| COc1ccc(S(=O)(=O)Nc2ccc3c(c2)C(=O)N([C@@H](C)CO)C[C@@H](C)[C@@H](CN(C)C(=O)c2ccccc2)OCCCC[C@@H](C)O3)cc1 | inactive |
| CC1(CO)COC1 | inactive |
| COc1ccc(CN(C)C[C@@H]2OCCCC[C@@H](C)Oc3ccc(NS(=O)(=O)c4cccs4)cc3C(=O)N([C@@H](C)CO)C[C@H]2C)cc1 | inactive |
| O=C(C[C@@H]1C[C@@H]2c3cc(NS(=O)(=O)c4ccc(F)cc4)ccc3O[C@@H]2[C@@H](CO)O1)N1CCOCC1 | inactive |
| Cc1noc(C)c1NC(=O)Nc1ccc2c(c1)C(=O)N([C@H](C)CO)C[C@@H](C)[C@H](CN(C)C(=O)Nc1ccc(F)cc1)OCCCC[C@H](C)O2 | inactive |
| COc1ccc(NC(=O)Nc2ccc3c(c2)C(=O)N([C@H](C)CO)C[C@@H](C)[C@@H](CN(C)C(=O)NC2CCCCC2)OCCCC[C@@H](C)O3)cc1 | inactive |
| O=C1NN=COc2ccccc21 | inactive |
| CC1CC(=O)NN=C1c1ccc(NN=C(C#N)C#N)cc1 (stereo not given) | inactive |
| C[C@@H]1CN([C@@H](C)CO)C(=O)c2cccc(NC(=O)Nc3ccc(C(F)(F)F)cc3)c2O[C@H]1CN(C)Cc1ccc(Cl)c(Cl)c1 | active |
| CC(=O)N[C@H]1[C@H](Oc2nc3cc(C)ccc3o2)O[C@H](CO)[C@@H](O)[C@@H]1O | inactive |
| CC(C)(C)c1cc(NC(=O)Nc2ccc(-c3cn4c(n3)sc3cc(OCCN5CCOCC5)ccc34)cc2)no1 | active |
| CC[C@H](C)C[C@H](C)CCCCCCCCC(=O)N[C@H]1C[C@@H](O)[C@@H](NCCN)NC(=O)[C@@H]2[C@@H](O)CCN2C(=O)[C@H]([C@H](O)CCN)NC(=O)[C@H]([C@H](O)[C@@H](O)c2ccc(O)cc2)NC(=O)[C@@H]2C[C@@H](O)CN2C(=O)[C@H]([C@@H](C)O)NC1=O | inactive |
| C[C@H]1CN([C@@H](C)CO)C(=O)c2cccc(NC(=O)CCCCCC(=O)Nc3ccccc3N)c2O[C@H]1CN(C)C(=O)Nc1ccc(C(F)(F)F)cc1 | inactive |
